The values below come from the supplement of paper PMC4967469.

A word on the IC50: it is the concentration needed to halve the response being measured.

Compound in this assay: N#CC[C@H](C1CCCC1)n1cc(-c2ncnc3[nH]ccc23)cn1 [Ruxolitinib]
Briefly: Viability of human cancer cell lines after 72 h of drug (GDSC screen). The method, then: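 Human cancer cell lines in 384-well plates, medium with 10% serum, drug for 72 h over a 256-fold dose range (nine 2-fold or five 4-fold steps up to the top dose). Adherent lines were fixed and stained with the nucleic acid dye Syto60, suspension lines read with resazurin; signal relative to control wells, capped at 0 and 100%. One two-parameter sigmoid per drug and line, fitted in a mixed model over all curves with the slope shared within a line.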

The IC50 comes from the fitted curve, where viability falls to half of the control; fits outside the tested doses are given as limits. AUC, from the same fit, is the share of area under the viability curve across the 256-fold dose range; it is 1 without any effect and falls as sensitivity rises.

Regarding “YT (lymphoid neoplasm, suspension, top dose 5.24 µM)”, the AUC was found to be 0.774 and the IC50 was 1.76 µM.

As to “YAPC (pancreas, adherent, top dose 5.24 µM)”, the AUC stood at 0.983 and the IC50 was more than 5.24 µM.

Regarding “SK-CO-1 (large intestine, adherent, top dose 5.24 µM)”, the AUC came out at 0.989 and the IC50 is more than 5.24 µM.

Turning to “SW13 (adrenal gland, adherent, top dose 5.24 µM)”, the AUC was determined as 0.987 and the IC50 is more than 5.24 µM.

Take “LN-405 (glioma, adherent, top dose 5.24 µM)”: the AUC is 0.977 and the IC50 is more than 5.24 µM.

Turning to “U031 (kidney, adherent, top dose 5.24 µM)”, the AUC is 0.978 and the IC50 was more than 5.24 µM.

For “L-363 (myeloma, suspension, top dose 5.24 µM)”, the AUC was 0.988 and the IC50 is more than 5.24 µM.

As to “HGC-27 (stomach, adherent, top dose 5.24 µM)”, the AUC came to 0.99 and the IC50 was more than 5.24 µM.

As for “SU-DHL-16 (B-cell lymphoma, suspension, top dose 5.24 µM)”, the AUC is 0.993 and the IC50 was more than 5.24 µM.

Regarding “BL-41 (Burkitt lymphoma, suspension, top dose 5.24 µM)”, the AUC came to 0.976 and the concentration for half-maximal inhibition (IC50) is more than 5.24 µM.

Take “MN-60 (B-cell leukaemia, suspension, top dose 5.24 µM)”: the AUC worked out at 0.986 and the IC50 is more than 5.24 µM.

In the case of “BT-20 (breast, adherent, top dose 5.24 µM)”, the AUC was found to be 0.983 and the IC50 is more than 5.24 µM.

For “LB831-BLC (bladder, adherent, top dose 5.24 µM)”, the AUC was 0.987 and the IC50 was more than 5.24 µM.

Turning to “CHSA0108 (chondrosarcoma, adherent, top dose 5.24 µM)”, the AUC was determined as 0.954 and the IC50 was more than 5.24 µM.

For the cell line “SK-LU-1 (lung adenocarcinoma, adherent, top dose 5.24 µM)”, the AUC was determined as 0.981 and the IC50 is more than 5.24 µM.

For “SBC-3 (small cell lung carcinoma, adherent, top dose 5.24 µM)”, the AUC stood at 0.967 and the IC50 is more than 5.24 µM.

On to “KYSE-50 (oesophagus, adherent, top dose 5.24 µM)”, for which the AUC amounted to 0.99 and the IC50 is more than 5.24 µM.

With “KCL-22 (chronic myeloid leukaemia, suspension, top dose 5.24 µM)”, the AUC stood at 0.989 and the IC50 is more than 5.24 µM.

Regarding “HCC-56 (large intestine, adherent, top dose 5.24 µM)”, the AUC amounted to 0.987 and the IC50 is more than 5.24 µM.

With “EN (endometrium, adherent, top dose 5.24 µM)”, the AUC was determined as 0.976 and the IC50 is more than 5.24 µM.

“SK-MM-2 (myeloma, suspension, top dose 5.24 µM)”: the AUC turned out to be 0.982 and the IC50 is more than 5.24 µM.

Consider “697 (lymphoblastic leukaemia, suspension, top dose 5.24 µM)”, for which the AUC turned out to be 0.982 and the IC50 is more than 5.24 µM.

Consider “OCUB-M (breast, adherent, top dose 5.24 µM)”, for which the AUC turned out to be 0.987 and the IC50 was more than 5.24 µM.

On to “SNU-475 (liver, adherent, top dose 5.24 µM)”, for which the AUC was 0.991 and the IC50 is more than 5.24 µM.

In the case of “MC-IXC (neuroblastoma, adherent, top dose 5.24 µM)”, the AUC turned out to be 0.996 and the IC50 is more than 5.24 µM.

With “Hs746T (stomach, adherent, top dose 5.24 µM)”, the AUC worked out at 0.904 and the IC50 was more than 5.24 µM.

Consider “D-283MED (medulloblastoma, adherent, top dose 5.24 µM)”, for which the AUC was determined as 0.991 and the IC50 was more than 5.24 µM.

Turning to “SNU-1040 (large intestine, adherent, top dose 5.24 µM)”, the AUC worked out at 0.979 and the IC50 was more than 5.24 µM.

Turning to “SK-GT-4 (oesophagus, adherent, top dose 5.24 µM)”, the AUC came to 0.982 and the IC50 was more than 5.24 µM.

For the cell line “NOS-1 (osteosarcoma, adherent, top dose 5.24 µM)”, the AUC was 0.978 and the IC50 was more than 5.24 µM.

As for “LOUCY (T-cell lymphoblastic leukaemia, suspension, top dose 5.24 µM)”, the AUC came to 0.921 and the IC50 was more than 5.24 µM.

As for “ES4 (Ewing sarcoma, adherent, top dose 5.24 µM)”, the AUC was determined as 0.981 and the IC50 is more than 5.24 µM.

In the case of “HCC202 (breast, adherent, top dose 5.24 µM)”, the AUC amounted to 0.979 and the IC50 was more than 5.24 µM.

For “MDA-MB-453 (breast, adherent, top dose 5.24 µM)”, the AUC was determined as 0.981 and the IC50 is more than 5.24 µM.

Turning to “639-V (bladder, adherent, top dose 5.24 µM)”, the AUC was determined as 0.992 and the IC50 is more than 5.24 µM.

With “K5 (thyroid, adherent, top dose 5.24 µM)”, the AUC amounted to 0.987 and the IC50 was more than 5.24 µM.

Turning to “NCI-H1793 (lung adenocarcinoma, adherent, top dose 5.24 µM)”, the AUC was 0.981 and the IC50 is more than 5.24 µM.

For the cell line “HCC1143 (breast, adherent, top dose 5.24 µM)”, the AUC was 0.975 and the IC50 is more than 5.24 µM.

“DoTc2-4510 (cervix, adherent, top dose 5.24 µM)”: the AUC came out at 0.987 and the IC50 was more than 5.24 µM.

In the case of “RCC-MF (kidney, adherent, top dose 5.24 µM)”, the AUC was determined as 0.972 and the IC50 is more than 5.24 µM.

For “SCC-9 (head and neck, adherent, top dose 5.24 µM)”, the AUC was found to be 0.981 and the IC50 was more than 5.24 µM.

Turning to Hey (ovary, adherent, top dose 5.24 µM), the AUC turned out to be 0.988 and the IC50 was more than 5.24 µM.

In the case of “COR-L303 (small cell lung carcinoma, suspension, top dose 5.24 µM)”, the AUC was 0.986 and the IC50 is more than 5.24 µM.

For the cell line “SW872 (soft tissue, adherent, top dose 5.24 µM)”, the AUC is 0.983 and the IC50 is more than 5.24 µM.

For the cell line “BCPAP (thyroid, adherent, top dose 5.24 µM)”, the AUC stood at 0.985 and the IC50 is more than 5.24 µM.

As to “OACM5-1 (oesophagus, semi-adherent, top dose 5.24 µM)”, the AUC came to 0.978 and the IC50 was more than 5.24 µM.

Turning to “PCI-38 (head and neck, adherent, top dose 5.24 µM)”, the AUC came out at 0.985 and the IC50 was more than 5.24 µM.

For “DMS-79 (small cell lung carcinoma, suspension, top dose 5.24 µM)”, the AUC came to 0.979 and the IC50 is more than 5.24 µM.

Turning to “TT (thyroid, adherent, top dose 5.24 µM)”, the AUC worked out at 0.983 and the IC50 is more than 5.24 µM.

With “CADO-ES1 (Ewing sarcoma, suspension, top dose 5.24 µM)”, the AUC was determined as 0.983 and the IC50 is more than 5.24 µM.

Turning to “EM-2 (chronic myeloid leukaemia, suspension, top dose 5.24 µM)”, the AUC turned out to be 0.974 and the IC50 was more than 5.24 µM.

As for “SF268 (glioma, adherent, top dose 5.24 µM)”, the AUC is 0.971 and the IC50 was more than 5.24 µM.

In the case of “SW1417 (large intestine, adherent, top dose 5.24 µM)”, the AUC was 0.984 and the IC50 was more than 5.24 µM.

For “SW982 (soft tissue, adherent, top dose 5.24 µM)”, the AUC is 0.983 and the IC50 was more than 5.24 µM.

For the cell line “KS-1 (glioma, adherent, top dose 5.24 µM)”, the AUC came out at 0.972 and the IC50 is more than 5.24 µM.

For “D-423MG (glioma, adherent, top dose 5.24 µM)”, the AUC was determined as 0.981 and the IC50 is more than 5.24 µM.

As to “VMRC-RCZ (kidney, adherent, top dose 5.24 µM)”, the AUC came to 0.977 and the IC50 is more than 5.24 µM.

For the cell line “HuO-3N1 (osteosarcoma, adherent, top dose 5.24 µM)”, the AUC was found to be 0.981 and the IC50 is more than 5.24 µM.

On to “MSTO-211H (mesothelioma, adherent, top dose 5.24 µM)”, for which the AUC was 0.991 and the IC50 is more than 5.24 µM.

Regarding “T98G (glioma, adherent, top dose 5.24 µM)”, the AUC came to 0.989 and the IC50 was more than 5.24 µM.

In the case of “NCI-H1436 (small cell lung carcinoma, suspension, top dose 5.24 µM)”, the AUC worked out at 0.985 and the IC50 was more than 5.24 µM.

As for “NCI-H322M (lung adenocarcinoma, suspension, top dose 5.24 µM)”, the AUC is 0.984 and the IC50 is more than 5.24 µM.

Take “HPAF-II (pancreas, adherent, top dose 5.24 µM)”: the AUC turned out to be 0.98 and the half-inhibitory concentration (IC50) is more than 5.24 µM.

On to “NCI-H838 (lung adenocarcinoma, adherent, top dose 5.24 µM)”, for which the AUC is 0.987 and the IC50 is more than 5.24 µM.

“Calu-3 (lung adenocarcinoma, adherent, top dose 5.24 µM)”: the AUC came to 0.983 and the IC50 was more than 5.24 µM.

“OCI-LY-19 (B-cell lymphoma, suspension, top dose 5.24 µM)”: the AUC came out at 0.966 and the IC50 is more than 5.24 µM.
